Laboratory results taken from patent publication US20120295838A1, “Selective poly-substituted glycine antibiotics and related compositions” (priority 2008, published 2012).
Read-outs that look alike come from different tables or passages of the source. Part of at least one peptide drawing is inferred or uncertain, most often the ends. Square brackets hold non-standard residues; d marks the D form. Peptide text beside a SMILES is read from it. Nspe = C[C@H](NCC(=O)O)c1ccccc1; Nphe = O=C(O)CNCc1ccccc1; Nlys = NCCCCNCC(=O)O

Experiments:
E. coli ATCC 35218 = assay type: cell-based; conditions: Table 6; for Selectivity ratio SR E. coli: ratio of 10% hemolytic dose to E. coli MIC; for E. coli MIC: E. coli ATCC 35218
Description: Whereas the preceding generation of molecules was designed to elucidate structure function relationships of specific molecular parameters (chirality, length, hydrophobicity, etc.), another generation compounds were designed explicitly to explore effects on selectivity. Antimicrobial activity of these compounds was tested against bacterial strains E. coli (ATTC 35218) and B. subtilis (ATTC 6633) in cation-adjusted MHB using the microdilution protocols previously described. The sequences, antimicrobial activities, hemolytic activities, and metabolic inhibitory concentrations against NIH 3T3 mouse fibroblast cells are summarized in Table 3 and the rationale of their design is described below.
Screening antibacterial assays. MICs were determined in 96-well microtiter plates in accordance with CLSI M7-A6 protocols. Peptoid solutions with 50 μL total volume were prepared using 2:1 serial dilutions. 50 i—tL of bacteria inoculum (1×10^6 CFU/mL) prepared in cation-adjusted Mueller-Hinton broth (CAMHB) was added to test wells. Control wells contained 100 μL MHB (no growth) or 50 μL inoculums with 50 μL MHB with no peptoid. […] Reported values were reproducible over three experiments, each containing two parallel trials.
Antibacterial Assays for Compositions. MICs were determined according to CLSI M7-A6 protocols in a 96-well microtiter plate. In test wells, 50 μL bacterial inoculum (1×10^6 CFU/ml) in cation-adjusted Mueller-Hinton broth (CAMHB) was added to 50 μL peptoid solution in CAMHB (prepared by 1:2 serial dilutions). Positive controls contained 50 μL inoculum and 50 μL CAMHB without peptoid. […] MIC values reported were reproducible between three independent experimental replicates, each consisting of two parallel trials.

E. coli JM109 = assay type: cell-based; conditions: Table 1, SR = (HD10)/(E. coli MIC)
Source text: An initial set of 15 ampetoid analogs was synthesized to determine whether peptoids are affected by structural and sequence modifications in a manner consistent with AMP activities. The designs for ampetoids in this library were derived from two antibacterial and selective amphipathic dodecamers, 1 and 2. Peptoid 1 [H-(Nlys-Nspe-Nspe)4-NH2] is composed of 2/3 Nspe, the peptoid analog of phenylalanine, and 1/3 Mys, the peptoid analog of lysine (see FIG. 1 for the structures of representative peptoid monomers and corresponding N-substituents). Peptoid 2 [H-(Mys-Nssb-Nspe)4-NH2] contains 1/3 isoleucine-like Nssb monomers in place of Nspe. The variant sequences were designed to effect changes in chirality, length, hydrophobicity, charge, and amphipathicity. All of these compounds were tested for antibacterial activity against representative BSL1 Gram-negative (E. coli JM109) and Gram-positive (B. subtilis BR151) bacterial strains. As an initial measure of selectivity, the lytic activity of the peptoids was determined against human erythrocytes. Table 1 summarizes the sequences synthesized, the solvent composition at RP-HPLC elution as a relative measure of molecular hydrophobicity, and antibacterial and hemolytic activities.
Antibacterial assays. MICs were determined according to CLSI M7-A6 protocols in a 96-well microtiter plate. In test wells, 50 uL bacterial inoculum (5×10^5 CFU/ml) in Mueller-Hinton broth (MHB) was added to 50 μL peptoid solution in MHB (prepared by 1:2 serial dilutions). Positive controls contained 50 μL inoculum and 50 μL MHB without peptoid. […] MIC values reported were reproducible between three independent experimental replicates, each consisting of two parallel trials. Broad-spectrum antimicrobial susceptibility testing was performed against BSL2 pathogens by Nova Biologicals, Inc. (Conroe, Tex.).

C[C@@H](c1ccccc1)N(CC(N)=O)C(=O)CN(Cc1ccccc1)C(=O)CN(CCCCN)C(=O)CN(C(=O)CN(Cc1ccccc1)C(=O)CN(CCCCN)C(=O)CN(C(=O)CN(Cc1ccccc1)C(=O)CN(CCCCN)C(=O)CN(C(=O)CN(Cc1ccccc1)C(=O)CNCCCCN)[C@@H](C)c1ccccc1)[C@@H](C)c1ccccc1)[C@@H](C)c1ccccc1 [1-Npm2,5,8,11, H-(Nlys-Npm-Nspe)4-NH2] (H-[Nlys][Nphe][Nspe][Nlys][Nphe][Nspe][Nlys][Nphe][Nspe][Nlys][Nphe][Nspe]-NH2)
Selectivity ratio SR E. coli (E. coli ATCC 35218): 14

C[C@@H](c1ccccc1)N(CC(N)=O)C(=O)CN(C(=O)CN(CCCCN)C(=O)[C@@H]1CCCN1C(=O)CN(C(=O)CN(CCCCN)C(=O)CN(C(=O)CN(C(=O)CN(CCCCN)C(=O)[C@@H]1CCCN1C(=O)CN(C(=O)CNCCCCN)[C@@H](C)c1ccccc1)[C@@H](C)c1ccccc1)[C@@H](C)c1ccccc1)[C@@H](C)c1ccccc1)[C@@H](C)c1ccccc1 [1-Pro3,9, H-(Nlys-Nspe-L-Pro-Nlys-Nspe-Nspe)2-NH2] (H-[Nlys][Nspe]P[Nlys][Nspe][Nspe][Nlys][Nspe]P[Nlys][Nspe][Nspe]-NH2)
E. coli MIC (E. coli ATCC 35218): 50 µM

C[C@H](NCC(=O)N(CCCCN)CC(=O)N(CC(=O)N(CCCCN)CC(=O)N(CCCCN)CC(=O)N(CCCCN)CC(=O)N(CC(=O)N(CCCCN)CC(=O)N(CC(=O)N(CCCCN)CC(=O)N(CCCCN)CC(=O)N(CC(N)=O)[C@@H](C)c1ccccc1)[C@@H](C)c1ccccc1)[C@@H](C)c1ccccc1)[C@@H](C)c1ccccc1)c1ccccc1 [1B12 mer-Nlys4,6,10, H-Nspe-Nlys-Nspe-Nlys-Nlys-Nlys-Nspe-Nlys-Nspe-Nlys-Nlys-Nspe-NH2] (H-[Nspe][Nlys][Nspe][Nlys][Nlys][Nlys][Nspe][Nlys][Nspe][Nlys][Nlys][Nspe]-NH2)
E. coli MIC (E. coli ATCC 35218; listed as 1B-Mys4,6,10): > 100 µM
Selectivity ratio SR E. coli (E. coli ATCC 35218): Inactive

C[C@H](NCC(=O)N(CCCCN)CC(=O)N(CC(=O)N(CCCCN)CC(=O)N(CCCCN)CC(=O)N(CCCCN)CC(=O)N(CC(=O)N(CCCCN)CC(=O)N(CC(=O)N(CCCCN)CC(=O)N(CCCCN)CC(=O)N(CC(=O)N(CC(=O)N(CCCCN)CC(=O)N(CC(N)=O)[C@@H](C)c1ccccc1)[C@@H](C)c1ccccc1)[C@@H](C)c1ccccc1)[C@@H](C)c1ccccc1)[C@@H](C)c1ccccc1)[C@@H](C)c1ccccc1)c1ccccc1 [1B15 mer-Nlys4,6,10, H-Nspe-Nlys-Nspe-Nlys-Nlys-Nlys-Nspe-Nlys-Nspe-Nlys-Nlys-Nspe-Nspe-Nlys-Nspe-NH2] (H-[Nspe][Nlys][Nspe][Nlys][Nlys][Nlys][Nspe][Nlys][Nspe][Nlys][Nlys][Nspe][Nspe][Nlys][Nspe]-NH2)
E. coli MIC (E. coli ATCC 35218; listed as 1B 15mer-Mys4,6,10): > 100 µM

C[C@H](NCC(=O)N(CCCCN)CC(=O)N(CC(=O)N(CCCCN)CC(=O)N(CCCCN)CC(=O)N(CC(=O)N(CC(=O)N(CCCCN)CC(=O)N(CC(=O)N(CCCCN)CC(=O)N(CCCCN)CC(=O)N(CC(=O)N(CC(=O)N(CCCCN)CC(=O)N(CC(N)=O)[C@@H](C)c1ccccc1)[C@@H](C)c1ccccc1)[C@@H](C)c1ccccc1)[C@@H](C)c1ccccc1)[C@@H](C)c1ccccc1)[C@@H](C)c1ccccc1)[C@@H](C)c1ccccc1)c1ccccc1 [1B15 mer-Nlys4,10, H-(Nspe-Nlys-Nspe-Nlys-Nlys-Nspe)2-Nspe-Nlys-Nspe-NH2] (H-[Nspe][Nlys][Nspe][Nlys][Nlys][Nspe][Nspe][Nlys][Nspe][Nlys][Nlys][Nspe][Nspe][Nlys][Nspe]-NH2)
E. coli MIC (E. coli ATCC 35218): 50 µM

C[C@H](NCC(=O)N(CCCCN)CC(=O)N(CC(=O)N(CC(=O)N(CCCCN)CC(=O)N(CC(=O)N(CC(=O)N(CCCCN)CC(=O)N(CC(=O)N(CC(=O)N(CCCCN)CC(=O)N(CC(N)=O)[C@@H](C)c1ccccc1)[C@@H](C)c1ccccc1)[C@@H](C)c1ccccc1)[C@@H](C)c1ccccc1)[C@@H](C)c1ccccc1)[C@@H](C)c1ccccc1)[C@@H](C)c1ccccc1)c1ccccc1 [1B, H-(Nspe-Nlys-Nspe)4-NH2] (H-[Nspe][Nlys][Nspe][Nspe][Nlys][Nspe][Nspe][Nlys][Nspe][Nspe][Nlys][Nspe]-NH2)
E. coli MIC (E. coli ATCC 35218): 6.3 µM

C[C@H](NCC(=O)N(CC(=O)N(CCCCN)CC(=O)N(CC(=O)N(CC(=O)N(CCCCN)CC(=O)N(CC(=O)N(CC(=O)N(CCCCN)CC(=O)N(CC(=O)N(CC(=O)N(CCCCN)CC(N)=O)[C@@H](C)c1ccccc1)[C@@H](C)c1ccccc1)[C@@H](C)c1ccccc1)[C@@H](C)c1ccccc1)[C@@H](C)c1ccccc1)[C@@H](C)c1ccccc1)[C@@H](C)c1ccccc1)c1ccccc1 [1C, H-(Nspe-Nspe-Nlys)4-NH2] (H-[Nspe][Nspe][Nlys][Nspe][Nspe][Nlys][Nspe][Nspe][Nlys][Nspe][Nspe][Nlys]-NH2)
E. coli MIC (E. coli ATCC 35218): 6.3 µM

C[C@@H](c1ccccc1)N(CC(=O)N(CC(=O)N(CCCCN)CC(=O)N(CC(=O)N(CC(=O)N(CCCCN)CC(=O)N(CC(=O)N(CC(=O)N(CCCCN)CC(=O)N(CC(=O)N(CC(N)=O)Cc1ccccc1)Cc1ccccc1)Cc1ccccc1)Cc1ccccc1)Cc1ccccc1)Cc1ccccc1)Cc1ccccc1)C(=O)CNCCCCN [1ach-Nspe2, H-(Nlys-Nspe-Npm)-(Nlys-Npm-Npm)3-NH2] (H-[Nlys][Nspe][Nphe][Nlys][Nphe][Nphe][Nlys][Nphe][Nphe][Nlys][Nphe][Nphe]-NH2)
E. coli MIC (E. coli ATCC 35218): 6.3 µM
Selectivity ratio SR E. coli (E. coli ATCC 35218): 25
Selectivity ratio SR E. coli (E. coli ATCC 35218; listed as 1ach-NSpe2): 14-26

C[C@@H](c1ccccc1)N(CC(N)=O)C(=O)CN(C(=O)CN(C(=O)CN(C(=O)CN(C(=O)CN(C(=O)CN(C(=O)CN(C(=O)CN(CCCCN)C(=O)CN(CCCCN)C(=O)CN(CCCCN)C(=O)CNCCCCN)[C@@H](C)c1ccccc1)[C@@H](C)c1ccccc1)[C@@H](C)c1ccccc1)[C@@H](C)c1ccccc1)[C@@H](C)c1ccccc1)[C@@H](C)c1ccccc1)[C@@H](C)c1ccccc1 [1block, H-(Nlys)4-(Nspe)8-NH2]
Selectivity ratio (SR) (E. coli JM109): < 6.0
Selectivity ratio (SR) (E. coli JM109; listed as 1 block): 2.6

C[C@@H](c1ccccc1)N(CC(=O)N(CCCCN)CC(=O)N(CC(=O)N(CC(=O)N(CCCCN)CC(=O)N(CC(=O)N(CC(=O)N(CCCCN)CC(=O)N(CC(=O)N(CC(=O)N(CCCCN)CC(N)=O)[C@@H](C)c1ccccc1)[C@@H](C)c1ccccc1)[C@@H](C)c1ccccc1)[C@@H](C)c1ccccc1)[C@@H](C)c1ccccc1)[C@@H](C)c1ccccc1)C(=O)CN(C(=O)CNCCCCN)[C@@H](C)c1ccccc1 [113 mer, H-(Nlys-Nspe-Nspe)4-Nlys-NH2] (H-[Nlys][Nspe][Nspe][Nlys][Nspe][Nspe][Nlys][Nspe][Nspe][Nlys][Nspe][Nspe][Nlys]-NH2)
E. coli MIC (E. coli ATCC 35218): 3.1 µM

C[C@@H](c1ccccc1)N(CC(N)=O)C(=O)CN(C(=O)CN(CCCCN)C(=O)CN(C(=O)CN(C(=O)CN(CCCCN)C(=O)CN(C(=O)CN(C(=O)CN(CCCCN)C(=O)CN(C(=O)CN(C(=O)CN(CCCCN)C(=O)CN(C(=O)CN(C(=O)CNCCCCN)[C@@H](C)c1ccccc1)[C@@H](C)c1ccccc1)[C@@H](C)c1ccccc1)[C@@H](C)c1ccccc1)[C@@H](C)c1ccccc1)[C@@H](C)c1ccccc1)[C@@H](C)c1ccccc1)[C@@H](C)c1ccccc1)[C@@H](C)c1ccccc1 [115 mer, H-(Nlys-Nspe-Nspe)5-NH2]
Selectivity ratio (SR) (E. coli JM109): 0.55
